Results taken from PubChem BioAssay AID1347165 (National Center for Advancing Translational Sciences (NCATS), 2019).
Out of some 220,000 compounds screened, about 5,700 (2.6%) were called active. The shares of active, inactive and inconclusive entries below differ from those in the screen. The call rests on the fitted dose curve; in most records, active means well fitted inhibition curve with a large enough effect; inconclusive means small, poorly fitted or top-dose-only effect; inactive means no such curve, though single readings can be large or run the other way. Potencies of inconclusive entries are doubtful fits and often do not repeat.

Target: Lysine-specific demethylase 5B (Homo sapiens) (UniProt Q9UGL1)
Sequence of UniProt Q9UGL1 (Q9UGL1 whole entry, looked up): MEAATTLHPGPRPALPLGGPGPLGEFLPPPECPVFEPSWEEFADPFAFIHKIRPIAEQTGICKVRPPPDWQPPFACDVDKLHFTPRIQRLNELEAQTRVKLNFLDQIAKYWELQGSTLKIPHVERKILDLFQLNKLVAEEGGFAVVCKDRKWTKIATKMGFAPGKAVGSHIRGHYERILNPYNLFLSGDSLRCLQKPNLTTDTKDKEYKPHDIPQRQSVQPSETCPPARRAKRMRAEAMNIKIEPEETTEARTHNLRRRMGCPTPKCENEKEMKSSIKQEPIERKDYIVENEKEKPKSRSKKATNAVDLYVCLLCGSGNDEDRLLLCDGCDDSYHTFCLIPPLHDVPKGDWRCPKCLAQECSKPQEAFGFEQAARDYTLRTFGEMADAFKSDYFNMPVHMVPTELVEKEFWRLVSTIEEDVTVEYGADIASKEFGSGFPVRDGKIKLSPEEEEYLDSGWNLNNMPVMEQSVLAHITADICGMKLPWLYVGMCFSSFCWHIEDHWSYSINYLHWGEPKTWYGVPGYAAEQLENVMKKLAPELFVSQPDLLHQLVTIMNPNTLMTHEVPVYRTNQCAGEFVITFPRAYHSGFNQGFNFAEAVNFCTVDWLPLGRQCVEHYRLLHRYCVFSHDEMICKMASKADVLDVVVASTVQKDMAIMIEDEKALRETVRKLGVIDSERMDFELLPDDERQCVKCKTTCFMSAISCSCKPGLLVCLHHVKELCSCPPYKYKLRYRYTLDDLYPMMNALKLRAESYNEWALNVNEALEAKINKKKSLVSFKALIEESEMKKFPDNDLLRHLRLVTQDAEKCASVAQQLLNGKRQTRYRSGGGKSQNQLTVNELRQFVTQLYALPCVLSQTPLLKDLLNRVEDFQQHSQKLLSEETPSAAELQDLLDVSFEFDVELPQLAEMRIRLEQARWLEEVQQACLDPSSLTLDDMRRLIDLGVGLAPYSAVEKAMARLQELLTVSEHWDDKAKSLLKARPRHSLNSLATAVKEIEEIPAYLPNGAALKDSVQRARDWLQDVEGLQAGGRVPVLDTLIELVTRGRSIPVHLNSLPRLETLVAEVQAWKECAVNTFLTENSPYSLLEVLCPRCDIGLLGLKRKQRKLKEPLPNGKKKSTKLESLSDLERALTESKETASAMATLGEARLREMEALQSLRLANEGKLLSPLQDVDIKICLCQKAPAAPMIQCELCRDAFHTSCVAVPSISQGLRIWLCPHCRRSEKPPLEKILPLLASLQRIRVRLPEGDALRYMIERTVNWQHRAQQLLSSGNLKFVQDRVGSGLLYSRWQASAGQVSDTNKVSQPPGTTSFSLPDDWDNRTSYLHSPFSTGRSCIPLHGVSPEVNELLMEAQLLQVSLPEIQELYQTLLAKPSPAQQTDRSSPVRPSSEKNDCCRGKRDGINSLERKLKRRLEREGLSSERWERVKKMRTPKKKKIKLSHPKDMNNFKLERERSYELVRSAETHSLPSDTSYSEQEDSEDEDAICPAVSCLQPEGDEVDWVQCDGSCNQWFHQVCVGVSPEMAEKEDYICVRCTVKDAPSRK
Experiment: Primary screen for KDM5B Histone Demethylases FDH-coupled qHTS; further: nearly all actives have a fitted effect of over 70% in size; on activity change, negative = inhibition: 0% is about no effect
Settings: FDH-coupled NADH fluorescence (FDH is formaldehyde dehydrogenase); activity change, negative = inhibition: at 57.7 µM (top of the series) unless noted
In short: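 Coupled FDH/NAD⁺ fluorescence readout. KDM5BΔAP 200 nM final; compound titration, 10 min RT preincubation; substrate mix 12.5 µM H3K4me3, 25 µM 2-OG, 50 µM Fe(II), 100 µM ascorbate, 0.25 mM NAD⁺, 0.25 U/mL FDH; ΔRFU over 30 min.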
Potency means the concentration at half of the fitted maximal effect; tags describe the fitted curve by direction and shape.

| SMILES | Potency | activity change, negative = inhibition |
| --- | --- | --- |
| Cc1cc(NS(=O)(=O)c2ccc(NC(=O)C(C)Oc3ccc(C(C)C)cc3)cc2)no1 (stereo unspecified) | inconclusive: 2.51 µM [inhibitor, full curve, poor fit] | – |
| CNC(=O)NC[C@H]1CCN(Cc2ccc(C#N)cc2)C[C@H]1N(C)C | inconclusive: 28.2 µM [inhibitor, single point] | – |
| CC(C)NC(=O)N1CCCC1c1nnc2n1CCNC2 (stereo unspecified) | inconclusive: 79.4 µM [inhibitor, partial curve] | – |
| COc1cc(OC)c2c(C)c(CC(=O)NCCc3ccccc3F)c(=O)oc2c1 | inconclusive: 1.78 µM [inhibitor, partial curve, poor fit] | – |
| CCCCCCNC(=O)Cc1csc2nc(C)c(-c3cc(C)n(-c4ccccc4F)n3)c(=O)n12 | inconclusive: 28.2 µM [inhibitor, partial curve, poor fit] | – |
| COc1ccc(OC)c(CCNC(=O)c2cnn(-c3ccccc3)c2-n2cccc2)c1 | – | inconclusive: -34.8% [inhibitor] |
| O=C(CCS(=O)(=O)c1cc(Br)cc2c1N(C(=O)C1CC1)CC2)N1CCN(c2ccccc2)CC1 | inconclusive: 12.6 µM [inhibitor, partial curve, poor fit] | – |
| COc1ccccc1N1CCN(CC(=O)Nc2ncc3c(n2)CC(C)CC3=O)CC1 (stereo unspecified) | – | inactive: 22.1% |
| O=C(Nc1cccc(Cl)c1)C1CN(c2cccc(Cl)c2)C(=O)N1 (stereo unspecified) | – | inactive: 9.36% |
| COc1ccc(-n2ccnc2SCC(=O)Nc2nc(C)cs2)c(OC)c1 | – | inactive: -2.5% |
| COc1ccccc1NC(=O)N1CCc2cc(OC)c(OC)cc2C1CNC(=O)c1ccccc1 (stereo unspecified) | – | inactive: 1.4% |
| C[C@H](C(=O)N1Cc2ccccc2CC2(CCN(Cc3ccncc3)C2)C1)c1ccccc1 (stereo partly specified) | inconclusive: 50.1 µM [inhibitor, partial curve] | – |
| Cc1ccc(-c2noc([C@@H]3CCCN3C(=O)CCCc3ccccc3)n2)cc1 | – | inactive: -12.2% |
| COc1cc(OC)cc(OCc2nc3c(n2Cc2ccccc2)C(=O)N(Cc2ccccc2C#N)CCN3)c1 | inconclusive: 39.8 µM [inhibitor, single point] | – |
| COc1ccc2c(COC(=O)c3ccccc3OCC3CCCO3)cc(=O)oc2c1 (stereo unspecified) | inconclusive: 25.1 µM [inhibitor, partial curve, poor fit] | – |
| CCc1ccc(NC(=O)Cn2c(=O)n(Cc3ccc(C)cc3)c(=O)c3cccnc32)cc1 | inconclusive: 2.82 µM [inhibitor, full curve, poor fit] | – |
| Nc1nc(COC(=O)c2ccc(O)cc2)nc2ccccc12 | – | inactive: -8.63% |
| COCCNC(=O)C[C@@H]1C[C@@H](C(C)C)[C@H](CNS(C)(=O)=O)C=C1C | inconclusive: 35.5 µM [inhibitor, single point] | – |
| Cc1cc(C(=O)CSc2nnc(C(C)Oc3ccc(F)cc3)o2)c(C)n1C1CC1 (stereo unspecified) | – | inactive: 13.9% |
| Cc1cc(C)cc(N2C(=O)CSC23C(=O)N(CC(=O)NC2CCCCC2)c2ccccc23)c1 (stereo unspecified) | inconclusive: 25.1 µM [inhibitor, partial curve, poor fit] | – |
| CN(C)c1cccc(C(=O)NC2CCN(c3cc(-c4ccc(Cl)cc4)[nH]n3)C2)c1 (stereo unspecified) | inconclusive: 31.6 µM [inhibitor, partial curve, poor fit] | – |
| CN1CCN(c2cc(=O)c3ccnc(NCc4ccccc4)c3o2)CC1 | active: 39.8 µM | – |
| CCN(CC)Cc1nc(C2(O)CCN(Cc3ccc(F)cc3)CC2)cs1 | – | inactive: 8.95% [at 86.2 µM] |
| Cc1nn2c(c1-c1ccccc1N1CCCC1)N(C(=O)c1ccn(C)n1)CCC2 | active: 7.94 µM | – |

| SMILES | Potency | activity change, negative = inhibition |
| --- | --- | --- |
| N#CCN(C(=O)c1ccccc1)C1CC1 | – | inactive: 7.77% |
| Cc1cc(C)c2oc(C(=O)N(Cc3ccccc3)Cc3ccco3)cc(=O)c2c1 | – | inactive: -6.83% |
| CN(C)C[C@@H]1CN(S(C)(=O)=O)C[C@H]1NC(=O)c1ncccn1 | – | inactive: 3.17% |
| CC(C)c1ccc(CNC(=O)c2cc3n(n2)CC(c2ccc(Cl)cc2)OC3)cc1 (stereo unspecified) | – | inactive: -20.9% |
| COCCNC(=O)c1ccc2c(c1)N(C)C(CC(=O)N1CCNC(=O)C1)CO2 (stereo unspecified) | active: 28.2 µM | – |
| CSc1ccc(C(=O)N2CCN(Cc3ccccc3)CC(O)C2)cc1 (stereo unspecified) | – | inactive: -28% |
| COc1ccc(CCNC(=O)CCc2c(C)nc3cc(-c4ccc(Cl)cc4)nn3c2C)c(OC)c1 | inconclusive: 39.8 µM [inhibitor, single point] | – |
| COc1ccc(-c2nc(-c3ccc(S(=O)(=O)N4CCCC4)cc3)cs2)cc1OC | – | inactive: 2.66% |
| Cc1ccc(C#N)c(NCc2cccnc2N2CCN(c3ccccn3)CC2)n1 | active: 28.2 µM | – |
| COc1ccccc1NC(=O)c1cc(=O)c2cc(C)c(C)cc2o1 | – | inactive: 3.69% |
| O=C(Nc1ccc(Oc2ccccc2)cc1)O[C@@H]1CO[C@H]2[C@@H]1OC[C@@H]2NS(=O)(=O)c1cccs1 | inconclusive: 22.4 µM [inhibitor, partial curve, poor fit] | – |
| O=C(CCC(=O)OCc1ccc(Cl)cc1)Nc1ccc2c(c1)oc1ccccc12 | – | inactive: 18.7% |
| Cc1cc(Nc2ccc(Br)cc2)nc(-c2ccccc2O)n1 | inconclusive: 39.8 µM [inhibitor, single point] | – |
| COc1ccc(OC)c(-c2n[nH]c3c2CC(=O)N(Cc2ccccc2)C3)c1 | inconclusive: 39.8 µM [inhibitor, single point] | – |
| CCn1c(SCC(=O)c2ccc[nH]2)nnc1-c1ccc(OC)cc1 | – | inactive: 4.05% |
| O=C(COC(=O)c1ccccc1O)NC1CCCc2ccccc21 (stereo unspecified) | inconclusive: 20 µM [inhibitor, partial curve, poor fit] | – |
| O=C(Cc1noc2ccccc12)N[C@H](C1CCNCC1)C1CC(O)C1 (stereo partly specified) | – | inactive: 28.7% |
| CC(C)CCNC(=O)C1(C)Cn2c(ccc2-c2ccco2)C(=O)N1Cc1ccccc1F (stereo unspecified) | inconclusive: 3.16 µM [inhibitor, full curve, poor fit] | – |
| COc1ccc([C@H]2C[C@@H](O)[C@@H](O)[C@@H]2NCc2cnn(C)c2)cc1 | – | inactive: 1.88% [at 86.2 µM] |
| COCCN1CCCNCC1 | – | inactive: 60.6% |
| CC(C)NC(=O)c1ccc(-c2ccc(N3CCCCCC3)nc2)cc1 | – | inactive: -2260% |
| O=C(NCC1CN(Cc2ccncc2Cl)CC12CN(c1ccccc1)C2)C1CCOCC1 (stereo unspecified) | inconclusive: 22.4 µM [inhibitor, single point] | – |
| N#Cc1nc(/C=C/c2ccccc2Cl)oc1N1CCN(C(=O)c2ccco2)CC1 | inconclusive: 2.82 µM [inhibitor, full curve, poor fit] | – |
| Cc1ccccc1C(=O)NCCc1sc2nc(-c3ccc(F)cc3)nn2c1C | inconclusive: 20 µM [inhibitor, partial curve, poor fit] | – |

| SMILES | Potency | activity change, negative = inhibition |
| --- | --- | --- |
| O=C(OCC(=O)N1CCCc2ccccc21)c1ccccc1NS(=O)(=O)c1ccc(F)cc1 | inconclusive: 39.8 µM [inhibitor, single point] | – |
| Cc1nc2nc(N)c(C#N)cn2n1 | – | inactive: -24.8% |
| CC(C)(C)c1ccc2c(c1)Oc1cc(C(C)(C)C)ccc1OCCOCCOCCO2 | – | inactive: 30.6% |
| Cc1nccn1C(C)C(=O)NCc1cccnc1N(C)Cc1ccccc1 (stereo unspecified) | inconclusive: 28.2 µM [inhibitor, single point] | – |
| O=S(=O)(Nc1nc2n(n1)C(c1ccc(F)cc1)C=C(c1ccc(Cl)cc1)N2)c1ccccc1 (stereo unspecified) | inconclusive: 25.1 µM [inhibitor, partial curve, poor fit] | – |
| COc1ccc(-c2cc(N3CCCN(C(=O)Cc4ccccc4Cl)CC3)n[nH]2)cc1 | inconclusive: 15.8 µM [inhibitor, single point] | – |
| O=Cc1c(-c2ccccc2)c(C=O)n2ccccc12 | – | inactive: -25.5% |
| CCCCNC(=O)Cc1csc2nc(C)c(-c3cc(C)n(-c4cccc(Cl)c4)n3)c(=O)n12 | inconclusive: 31.6 µM [inhibitor, partial curve, poor fit] | – |
| Cc1c(CCl)cc(C(=O)O)cc1CCl | – | inactive: 5.72% |
| CCOCCCNC(=S)NCc1cccc(COCc2ccccc2)c1 | – | inactive: -16% |
| COc1cc(OC)c(CC2C(=O)Nc3cc(Cl)ccc32)c(OC)c1 (stereo unspecified) | inconclusive: 12.6 µM [inhibitor, partial curve, poor fit] | – |
| COc1cc(CNC(=O)c2cc(-c3ccc(F)cc3)cc3ncn(C)c23)ccn1 | active: 31.6 µM | – |
| CCCn1c(C)c(CC(=O)NCC2CCCOC2)c2c1CC(C)(C)CC2=O (stereo unspecified) | – | inactive: 2.56% |
| CCC12CN3CC(CC)(CN(C1)C3c1c[nH]c3ccccc13)C2=O (stereo unspecified) | inconclusive: 1.78 µM [inhibitor, partial curve, poor fit] | – |
| Cc1ccc(-c2cn3c(n2)sc2cc(C(=O)NC4CCCCCC4)ccc23)cc1 | inconclusive: 15.8 µM [inhibitor, partial curve, poor fit] | – |
| O=C(Nc1ccccn1)C1CN(Cc2ccc[nH]2)CC12CCOCC2 (stereo unspecified) | inconclusive: 12.6 µM [inhibitor, partial curve, poor fit] | – |
| NC(=O)[C@H](Cc1cccs1)NC(=O)[C@@H]1[C@@H](NC(=O)Nc2ccc(F)cc2F)CCN1C(=O)c1cnccn1 | – | inactive: 0.201% |
| S=C1NC2=C(CCc3ccccc32)C(c2ccccc2Cl)N1 (stereo unspecified) | inconclusive: 39.8 µM [inhibitor, partial curve, poor fit] | – |
| Brc1ccc(NC(c2ccccc2)c2ccncc2)cc1 (stereo unspecified) | inconclusive: 39.8 µM [inhibitor, single point] | – |
| CCCN(C)C(=O)c1cn2ccnc(-c3ccc(C)cc3)c2n1 | – | inactive: -37.1% |
| CCOC(=O)c1nc(NCc2ccccc2)sc1C | inconclusive: 10 µM [inhibitor, partial curve, poor fit] | – |
| Cn1cc(-c2cc(=O)c3ccnc(-c4cccc5[nH]ccc45)c3o2)cn1 | – | inactive: -26.4% [at 86.2 µM] |
| Cc1oc(-c2nc(C#N)c(NCc3cccnc3)o2)cc1S(=O)(=O)N(C)c1ccccc1 | – | inactive: 16.7% |
